From the antibiotic and cytotoxicity screens of Wong et al. (2023)
This is one part of the list.

What was measured:
HSkMC = human skeletal muscle cells; assay: cytotoxicity call (relative viability < 0.9); settings: 10 µM
S. aureus RN4220 = assay: growth inhibition call (relative growth <= 0.2); settings: 50 µM

| Structure (SMILES) | cytotoxicity call (HSkMC) | growth inhibition call (S. aureus RN4220) |
| --- | --- | --- |
| C[C@@H]1CN([C@@H](C)CO)C(=O)c2cc(NC(=O)Nc3ccc4c(c3)OCO4)ccc2O[C@@H]1CN(C)C(=O)Nc1ccc(C(F)(F)F)cc1 | inactive | inactive |
| Cc1ccc(S(=O)(=O)N(C)C[C@@H]2OCCCC[C@@H](C)Oc3ccc(NC(=O)NC4CCCCC4)cc3C(=O)N([C@H](C)CO)C[C@H]2C)cc1 | inactive | inactive |
| Cc1noc(C)c1S(=O)(=O)N(C)C[C@H]1OCCCC[C@H](C)Oc2ccc(NC(=O)Nc3ccc(C(F)(F)F)cc3)cc2C(=O)N([C@H](C)CO)C[C@@H]1C | inactive | inactive |
| C[C@@H]1CN([C@@H](C)CO)C(=O)c2cccc(NC(=O)Nc3ccccc3)c2O[C@H]1CN(C)Cc1ccc(-c2ccccc2)cc1 | active | inactive |
| NS(=O)(=O)c1ccc(Cl)cc1[N+](=O)[O-] | inactive | inactive |
| C[C@H]1CN([C@@H](C)CO)C(=O)Cc2cc(NC(=O)Nc3ccc(F)cc3)ccc2O[C@@H]1CN(C)C(=O)Nc1ccc(C(F)(F)F)cc1 | inactive | inactive |
| Cn1nnnc1NCc1ccccc1 | inactive | inactive |
| C[C@@H]1CN([C@H](C)CO)C(=O)c2cccc(NC(=O)Nc3ccc4c(c3)OCO4)c2O[C@H]1CN(C)S(C)(=O)=O | inactive | inactive |
